This note sets out measurements from PMC4336329 (PLoS ONE, 2015).

Out of some 310,000 compounds screened, about 2,200 (0.71%) showed an effect of 50% or more. The effect is printed as a negative number. This is one part of the list.

The target of this experiment is human ether-à-go-go-related gene (hERG) potassium channel (human, UniProt Q12809). As to the kind of experiment: primary screen, population patch clamp on CHO cells stably expressing hERG.
Sequence of human ether-à-go-go-related gene (hERG) potassium channel (Q12809 whole entry, looked up): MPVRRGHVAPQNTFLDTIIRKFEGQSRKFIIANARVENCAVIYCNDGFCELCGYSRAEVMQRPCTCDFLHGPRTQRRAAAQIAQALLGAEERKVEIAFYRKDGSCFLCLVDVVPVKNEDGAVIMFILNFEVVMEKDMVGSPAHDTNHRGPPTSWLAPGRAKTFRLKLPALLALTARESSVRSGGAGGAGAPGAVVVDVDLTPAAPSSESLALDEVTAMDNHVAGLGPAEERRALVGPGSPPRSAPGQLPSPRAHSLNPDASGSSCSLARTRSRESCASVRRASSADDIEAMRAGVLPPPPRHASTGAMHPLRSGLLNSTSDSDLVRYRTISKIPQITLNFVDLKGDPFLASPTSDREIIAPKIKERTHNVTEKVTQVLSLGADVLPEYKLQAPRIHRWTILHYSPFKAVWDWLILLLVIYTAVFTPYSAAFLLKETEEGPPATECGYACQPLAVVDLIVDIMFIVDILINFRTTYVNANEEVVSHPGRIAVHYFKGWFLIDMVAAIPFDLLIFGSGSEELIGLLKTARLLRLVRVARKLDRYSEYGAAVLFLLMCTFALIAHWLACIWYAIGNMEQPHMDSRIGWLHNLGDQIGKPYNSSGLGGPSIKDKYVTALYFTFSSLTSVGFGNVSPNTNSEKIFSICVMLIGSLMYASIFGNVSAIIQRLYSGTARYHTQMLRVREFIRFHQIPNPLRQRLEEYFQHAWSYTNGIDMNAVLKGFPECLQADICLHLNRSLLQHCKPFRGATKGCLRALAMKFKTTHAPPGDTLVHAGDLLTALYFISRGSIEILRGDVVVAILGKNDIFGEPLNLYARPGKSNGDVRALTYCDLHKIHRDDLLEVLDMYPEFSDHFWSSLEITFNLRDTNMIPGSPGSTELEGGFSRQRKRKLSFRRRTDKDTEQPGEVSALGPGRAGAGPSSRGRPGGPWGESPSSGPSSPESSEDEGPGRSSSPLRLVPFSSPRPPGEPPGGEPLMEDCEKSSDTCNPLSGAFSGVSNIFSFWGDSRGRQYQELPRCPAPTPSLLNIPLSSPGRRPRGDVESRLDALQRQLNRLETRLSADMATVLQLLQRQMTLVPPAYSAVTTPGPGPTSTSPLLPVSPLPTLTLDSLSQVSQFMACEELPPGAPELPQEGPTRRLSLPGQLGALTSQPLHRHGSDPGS
Consider `CC1CC(C)(C)NC(=S)N1CCCC(=O)N1CCN(c2ccccc2F)CC1` (stereo not drawn), for which the “hERG current change (%, negative = inhibition) at 1uM” value is on record as -8.48%.
To `O=C(CSc1nnnn1C1CC2C=CC1C2)Nc1ccc(C(=O)O)cc1` (stereo not drawn) belongs -4.89%.
As to `O=C(/C=C/c1ccccc1Cl)Nc1ccc2c(c1)C(=O)NC2=O`, the “hERG current change (%, negative = inhibition) at 1uM” value turned out to be 13.2%.
As to `COc1cccc(Nc2ncccc2C(=O)Nc2ccccc2)c1`, the “hERG current change (%, negative = inhibition) at 1uM” value stood at 11.5%.
To `Cc1cc(=O)[nH]c(SCC(=O)Nc2nnc(CC(C)C)s2)n1` belongs 7.6%; to `Cc1ccnc(NC(=O)/C=C/c2cccs2)c1`, 15.7%.
With `Cc1ccc(NC(=O)C2CCN(C(=O)NC3CCCCC3)CC2)cc1Cl`, the “hERG current change (%, negative = inhibition) at 1uM” value is listed as 14.8%.
The figure for `COc1ccc(CNC(=O)CN(c2cccc(OC)c2)S(C)(=O)=O)cc1` is 12.2%; for `COc1ccc(NC(=O)c2c[nH]c(=O)n(-c3ccc(C)c(C)c3)c2=O)cc1OC` it is 11.2%; for `CC1=Nn2c(nc3sc4c(c3c2=O)CCCC4)SC1` it is -5.24%.
Regarding `CCCNC(C)C(=O)Nc1c(C)csc1C(=O)OC.Cl` (stereo not drawn), the “hERG current change (%, negative = inhibition) at 1uM” value is 2.53%.
The figure for `CCC(C)(C)NC(=O)C(c1cccc(OC)c1OC)N(CCC(C)C)C(=O)CCC(=O)Nc1cc(C)on1` (stereo not drawn) is 13.8%; for `Cc1onc(-c2ccccc2Cl)c1C(=O)OCC(=O)N1CCCc2ccccc21` it is 5.67%; for `CCn1cc(C(C)NC(=O)Nc2ccc3c(c2)OCO3)c(C)n1` (stereo not drawn) it is 37.7%.
To `CCCCN(C(=O)COC(=O)CSc1cc(C)c2ccccc2n1)c1c(N)n(CCC)c(=O)[nH]c1=O` belongs 8.32%; to `CCn1c(CNc2ccccc2Cl)nnc1SCC(=O)OC1CCCCC1`, 14.1%.
To `CCN(CC)S(=O)(=O)c1ccc(Nc2cc(C)nc3ncnn23)cc1` belongs -12.7%; to `CC(=O)N1CCc2cc(NC(=O)c3ccc(C)cc3)ccc21`, 14.2%.
With `CC1(C)Cc2nc(-c3ccccc3)nc(NNC(=O)c3ccco3)c2CO1`, the “hERG current change (%, negative = inhibition) at 1uM” value amounted to 16.1%.
To `Cc1ccc(N2C(=O)CC(Cc3cc(C)cc(C)c3)C2=O)cc1` (stereo not drawn) belongs 10.7%; to `CCN(CC)S(=O)(=O)C1CCS(=O)(=O)C1` (stereo not drawn), 19.4%.
The figure for `O=C(c1ccc(CSc2ccccc2)cc1)N1CCCCCC1` is 14.3%; for `O=C(O)CSc1nnc(-c2cccs2)n1-c1ccc(Cl)cc1` it is 6.42%.
To `O=c1c2ccccc2c(-c2ccccc2)nn1Cc1c(Cl)cccc1Cl` belongs -3.75%.
In the case of `CC(=O)Nc1ccc(-n2cnnn2)cc1`, the “hERG current change (%, negative = inhibition) at 1uM” value stood at 11.2%.
As for `CN(C)CCN(Cc1ccccc1)c1ccccn1.Cl`, the “hERG current change (%, negative = inhibition) at 1uM” value is on record as -19.1%.
To `CC(OC(=O)c1ccc(CN2CCCC2=O)cc1)C(=O)Nc1ccc(Cl)cc1` (stereo not drawn) belongs 19.5%; to `CCCCc1nc2cc(Cl)ccc2o1`, 13.8%; to `C=C[C@]1(C)C[C@H]1[C@H](NP(=O)(c1ccccc1)c1ccccc1)c1ccccc1`, 16.6%.
On to `CC(=O)Nc1ccc(S(=O)(=O)NCCC(=O)N2CCCCC2)cc1`, for which the “hERG current change (%, negative = inhibition) at 1uM” value turned out to be 12.4%.
The figure for `O=C(COc1ccccc1)Nc1nc2cc3c(cc2s1)OCO3` is 17.4%; for `Cc1ccc(N(Cc2cc3ccccc3[nH]c2=O)S(C)(=O)=O)cc1` it is 10.2%; for `O=S(=O)(Nc1cccc(S(=O)(=O)N2CCOCC2)c1)c1ccc2c(c1)OCCO2` it is 16.1%.
The figure for `Cc1cc(C)nc(NS(=O)(=O)c2ccc(NS(=O)(=O)c3ccccc3)cc2)n1` is 4.46%; for `CC(C)(C)NC(=O)C1CC(=O)N(CCc2ccc(F)cc2)C1` (stereo not drawn) it is 13.9%; for `Cc1nc(SCC(N)=O)c(C#N)c(C)c1C` it is 11.4%.
To `Cc1snc(SCC(=O)c2ccc(Cl)cc2)c1C#N` belongs 3.58%; to `COc1ccc(NC(=O)c2c[nH]n3c(=O)cc(C4CCN(C(=O)OC(C)(C)C)CC4)nc23)cc1Cl`, 20.3%; to `Cc1cc2c(NC3CCCCC3)ncnc2s1.Cl`, 12%.
For the molecule `CCN1C(=NCc2ccc(OC)cc2)N[C@@H](c2ccccc2)C(C(=O)OC)=C1C`, the “hERG current change (%, negative = inhibition) at 1uM” value is reported as -15.8%.
To `O=C(Cc1ccc(S(=O)(=O)N2CCOCC2)s1)Nc1ccccc1N1CCOCC1` belongs 6.76%; to `COc1ccc(S(=O)(=O)N2CCOC23CCN(S(=O)(=O)c2c(C)cc(C)cc2C)CC3)cc1`, 2.86%.
On to `COc1cc2c(cc1NC(=O)C(C)OC(=O)/C=C/c1ccc(OC(F)F)cc1)oc1ccccc12` (stereo not drawn), for which the “hERG current change (%, negative = inhibition) at 1uM” value turned out to be 6.56%.
Consider `Cc1ccnc(NC(=O)c2cc(F)c(F)cc2Cl)n1`, for which the “hERG current change (%, negative = inhibition) at 1uM” value amounted to 14.5%.
The figure for `COc1ccc(C2NCCO2)cc1OC` (stereo not drawn) is 2.7%.
Consider `O=C(COC(=O)CSc1ccc(F)cc1)NC1CCCCCC1`, for which the “hERG current change (%, negative = inhibition) at 1uM” value came out at 9.31%.
For `Cn1nccc1NC(=O)Nc1cccc(Cl)c1`, the “hERG current change (%, negative = inhibition) at 1uM” value was found to be 21.6%.
As to `COc1ccc(OC)c(S(=O)(=O)N2CCC(C(=O)Nc3cccc(C(F)(F)F)c3)CC2)c1`, the “hERG current change (%, negative = inhibition) at 1uM” value turned out to be 6.39%.
To `CC1(C)C(=O)NCCN1C(=O)CCC(=O)O` belongs -3.77%; to `COc1ccc(CCCc2nnc(SCC(=O)NN)o2)c(C)c1`, 12.4%.
Take `O=C(CSc1cccc[n+]1[O-])Nc1cccc(S(=O)(=O)NC2=NCCCCC2)c1`: the “hERG current change (%, negative = inhibition) at 1uM” value is 23.1%.
To `Cc1c(C)n2c(SCC(=O)N3CCN(c4ccccc4)CC3)nnc2[nH]c1=O` belongs -6.68%; to `C=CCNC(=S)NNc1nc(Nc2ccccc2)nc(N2CCCCC2)n1`, 9.42%.
For `Cc1cc(S(=O)(=O)N(Cc2ccc3c(c2)OCO3)CC2CCCO2)ccc1-n1cnnn1` (stereo not drawn), the “hERG current change (%, negative = inhibition) at 1uM” value is listed as 12.1%.
For the molecule `CNC(=S)N1CCN(c2ccccn2)CC1`, the “hERG current change (%, negative = inhibition) at 1uM” value is on record as -0.557%.
Take `CCOC(=O)CN(C(=O)COc1nc(-c2ccccc2)cc(C)c1C#N)c1cccc(OC)c1`: the “hERG current change (%, negative = inhibition) at 1uM” value turned out to be 7.05%.
The figure for `Cc1cccc(N2CCN(S(=O)(=O)c3cc4c(cc3Cl)NC(=O)CO4)CC2)c1C` is 15.3%.
Regarding `COc1cccc(CNS(=O)(=O)c2cc3c4c(c2)CCC(=O)N4CCC3)c1`, the “hERG current change (%, negative = inhibition) at 1uM” value is given as 8.31%.
With `CCOC(=O)CC1C(=O)NCCN1Cc1cccc(C(F)(F)F)c1` (stereo not drawn), the “hERG current change (%, negative = inhibition) at 1uM” value is 16%.
On to `O=C(COc1ccccc1Cl)Nc1ccc(S(=O)(=O)N2CCOCC2)cc1`, for which the “hERG current change (%, negative = inhibition) at 1uM” value is given as 16%.
To `CC(NC(=O)C1CCN(S(=O)(=O)N2CCCCCC2)CC1)c1ccccc1` (stereo not drawn) belongs 1.6%; to `C=CCN=C(NC#N)SCC(=O)NCc1ccccc1`, 12.2%.
To `CCOc1cccc(C2/C(=C(/O)c3ccc4c(c3)CC(C)O4)C(=O)C(=O)N2CCCn2ccnc2)c1` (stereo not drawn) belongs 15.6%; to `O=C(Cn1nc(-c2ccccc2)ccc1=O)Nc1cccc(NC(=O)c2ccccn2)c1`, 10.7%; to `COc1ccccc1C(=O)COC(=O)/C(=C/c1ccccc1)NC(C)=O`, 7.59%.
To `Cc1ccc(S(=O)(=O)c2nc(S(C)(=O)=O)sc2N2CCOCC2)cc1` belongs 13.5%; to `COc1ccc(CC(=O)NCCc2ccc(OC)c(OC)c2)cc1`, 6.31%; to `COc1ccc(OC2C(=O)N(c3ccc(F)cc3)C2c2ccc(OC)c(OC)c2)cc1` (stereo not drawn), 2.18%.
Consider `COc1cccc(N(CC(=O)Nc2ccc3c(c2)OCO3)S(=O)(=O)c2ccccc2)c1`, for which the “hERG current change (%, negative = inhibition) at 1uM” value came out at 9.57%.
To `CC(CCc1ccccc1)NC(=O)CSc1nnnn1C` (stereo not drawn) belongs 7.84%; to `O=C(NCc1ccccc1)C(c1ccco1)N(C(=O)c1cnccn1)c1ccc(F)cc1` (stereo not drawn), 12.6%; to `CC(=O)Nc1sc(C)c(C)c1C(=O)OCC(=O)N(CC(C)C)C1CCS(=O)(=O)C1` (stereo not drawn), 15.1%.
For `CCc1c(C)nc(N)nc1N1N=C1SCCOc1ccccc1`, the “hERG current change (%, negative = inhibition) at 1uM” value was 5%.
The figure for `CCOc1cccc(C(=O)N/N=C/c2coc3ccccc3c2=O)c1` is 11.6%; for `Cc1ccccc1NC(=O)CC1C(=O)NCCN1C(=O)c1cccc(Cl)c1` (stereo not drawn) it is 16.4%; for `COCCN1C(=O)c2ccc(C(=O)O)cc2C1=O` it is 18.2%.
`O=C1C2Sc3[nH]c(=O)sc3C(c3cc([N+](=O)[O-])ccc3O)C2C(=O)N1c1ccccc1` (stereo not drawn): the “hERG current change (%, negative = inhibition) at 1uM” value worked out at 7.87%.
The figure for `Cc1ccc(S(=O)(=O)NCC(=O)N2CCN(S(=O)(=O)c3ccc(Cl)cc3)CC2)cc1C` is 11.7%; for `COc1ccc(S(=O)(=O)N(Cc2ccc(OC)c(OC)c2)Cc2ccco2)cc1` it is -0.929%.
On to `O=C(COC(=O)c1cc(S(=O)(=O)N2CCOCC2)ccc1O)NCC1CCCO1` (stereo not drawn), for which the “hERG current change (%, negative = inhibition) at 1uM” value is given as 6.32%.
The figure for `O=C(CSC(=S)N1CCCC1)N1CCN(S(=O)(=O)c2cccc([N+](=O)[O-])c2)CC1` is 9.73%; for `C=CCc1c(C)nc(C)nc1N/N=C/c1ccc(N(C)C)cc1` it is 2.09%.
For the molecule `Cc1c(/C(O)=C2\C(=O)C(=O)N(CCN(C)C)C2c2ccccc2)cnn1-c1ccccc1` (stereo not drawn), the “hERG current change (%, negative = inhibition) at 1uM” value is recorded as 8.46%.
On to `Cc1sc2ncnc(SCC(=O)c3ccc4c(c3)OCCO4)c2c1-c1ccccc1`, for which the “hERG current change (%, negative = inhibition) at 1uM” value came to 0.895%.
For `Cc1ccc(-n2nc(C)c(C(=O)Nc3cccc(C(=O)NC4CC4)c3)n2)c(C)c1`, the “hERG current change (%, negative = inhibition) at 1uM” value worked out at 7.41%.
As for `COc1ccc2cc(/C=N/NC(=O)c3c(Cl)cnn3C)c(Cl)nc2c1`, the “hERG current change (%, negative = inhibition) at 1uM” value stood at 12.9%.
The figure for `COc1ccccc1/C=C/CN1CCCC(CO)(CCc2ccccc2)C1` (stereo not drawn) is -31.4%.
